# Laboratory results from the supplement of paper PMC12217912.
# This is one part of the list. The full chains were built here from the parent and the listed change. Values near 0.05 are background.
# B1: TEV protease; numbered along this chain (parent)
# chain: MGESLFKGPRDYNPISSSICHLTNESDGHTTSLYGIGFGPFIITNKHLFRRNNGTLVVQSLHGVFKVKDTTTLQQHLVDGRDMIIIRMPKDFPPFPQKLKFREPQREERICLVTTNFQTKSMSSMVSDTSCTFPSGDGIFWKHWIQTKDGQCGSPLVSTRDGFIVGIHSASNFTNTNNYFTSVPKNFMELLTNQEAQQWVSGWRLNADSVLWGGHKVFMVKPEEPFQPVKEATQL
# Variants of: B1
# Assay: raw area under fraction-flipped curve 0-4 h after induction (AUC4h, not background-subtracted), DNA-recorder readout of cleavage of the substrate (dimensionless); higher = more cleavage of the substrate by the protease variant
# Settings: temperature: 34 °C; time window: 0-4 h after rhamnose induction
# Description: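 In vivo DNA recorder in E. coli TOP10(DE3) ΔrhaA at 34 °C. Each TEVp single-site mutant (parent TEVp 0) is paired with a single-site variant of the 7-mer TEVs (canonical ENLYFQ|S). The substrate sits between flexible linkers in a Bxb1-sfGFP-TEVs-SsrA fusion, so cleavage stabilises Bxb1 and speeds flipping of a recombination array, read by NGS. The value is the raw area under the fraction-flipped curve over 0-4 h after rhamnose induction (AUC4h), with ≥20 reads per time point. It is not background-subtracted; inactive controls average about 0.047.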
# 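Note: Bxb1 expression induced with 0.2% (w/v) L-rhamnose at OD600 near 0.5, cultures sampled hourly, flipped fraction per protease–substrate barcode pair counted by paired-end Illumina sequencing.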
variant,measurement,value
H29G,area with substrate ENLYCQS,0.0925
same,area with substrate ENLYDQS,0.0677
same,area with substrate ENLYEQS,0.0149
same,area with substrate ENLYIQS,0.162
same,area with substrate ENLYNQS,0.0673
same,area with substrate ENLYRQS,0.0561
same,area with substrate ENLYSQS,0.0961
same,area with substrate ENLYVQS,0.0858
F163D,area with substrate ENLYCQS,0.072
same,area with substrate ENLYEQS,0.0663
same,area with substrate ENLYGQS,0.0563
same,area with substrate ENLYPQS,0.0742
F163Y,area with substrate ENLYCQS,0.0592
same,area with substrate ENLYDQS,0.0515
same,area with substrate ENLYGQS,0.0656
same,area with substrate ENLYHQS,0.0699
same,area with substrate ENLYIQS,0.135
same,area with substrate ENLYMQS,0.0746
same,area with substrate ENLYPQS,0.0907
same,area with substrate ENLYQQS,0.0648
same,area with substrate ENLYRQS,0.0706
same,area with substrate ENLYSQS,0.0589
same,area with substrate ENLYVQS,0.127
same,area with substrate ENLYYQS,0.0804
P134R,area with substrate ENLYCQS,0.0825
same,area with substrate ENLYDQS,0.0643
same,area with substrate ENLYEQS,0.0517
same,area with substrate ENLYGQS,0.0644
same,area with substrate ENLYHQS,0.0615
same,area with substrate ENLYIQS,0.0687
same,area with substrate ENLYKQS,0.0657
same,area with substrate ENLYMQS,0.0742
same,area with substrate ENLYPQS,0.0727
same,area with substrate ENLYRQS,0.0604
same,area with substrate ENLYVQS,0.111
S209H,area with substrate ENLYAQS,0.0862
same,area with substrate ENLYEQS,0.0616
same,area with substrate ENLYGQS,0.0389
same,area with substrate ENLYHQS,0.0551
same,area with substrate ENLYKQS,0.0609
same,area with substrate ENLYNQS,0.0764
same,area with substrate ENLYPQS,0.0819
same,area with substrate ENLYRQS,0.0534
same,area with substrate ENLYSQS,0.0819
same,area with substrate ENLYVQS,0.131
same,area with substrate ENLYWQS,0.0857
same,area with substrate ENLYYQS,0.0666
L211N,area with substrate ENLYCQS,0.106
same,area with substrate ENLYDQS,0.0567
same,area with substrate ENLYEQS,0.0735
same,area with substrate ENLYHQS,0.0669
same,area with substrate ENLYKQS,0.056
same,area with substrate ENLYMQS,0.119
same,area with substrate ENLYNQS,0.064
same,area with substrate ENLYPQS,0.0816
same,area with substrate ENLYSQS,0.0965
same,area with substrate ENLYTQS,0.107
same,area with substrate ENLYWQS,0.1
D79E,area with substrate ENLYCQS,0.0742
same,area with substrate ENLYEQS,0.0503
same,area with substrate ENLYGQS,0.0663
same,area with substrate ENLYKQS,0.0657
same,area with substrate ENLYPQS,0.0547
same,area with substrate ENLYSQS,0.0685
same,area with substrate ENLYVQS,0.107
F218V,area with substrate ENLYAQS,0.0673
same,area with substrate ENLYCQS,0.0757
same,area with substrate ENLYDQS,0.0482
same,area with substrate ENLYEQS,0.066
same,area with substrate ENLYGQS,0.0409
same,area with substrate ENLYNQS,0.0587
same,area with substrate ENLYPQS,0.0657
same,area with substrate ENLYRQS,0.05
same,area with substrate ENLYVQS,0.117
F218I,area with substrate ENLYAQS,0.042
same,area with substrate ENLYDQS,0.0755
same,area with substrate ENLYEQS,0.0726
same,area with substrate ENLYGQS,0.0628
same,area with substrate ENLYHQS,0.049
same,area with substrate ENLYIQS,0.108
same,area with substrate ENLYLQS,0.0653
same,area with substrate ENLYMQS,0.0635
same,area with substrate ENLYNQS,0.0601
same,area with substrate ENLYPQS,0.0714
same,area with substrate ENLYQQS,0.191
same,area with substrate ENLYSQS,0.0695
same,area with substrate ENLYTQS,0.0786
same,area with substrate ENLYVQS,0.0913
same,area with substrate ENLYWQS,0.0642
same,area with substrate ENLYYQS,0.0695
V67G,area with substrate ENLYCQS,0.102
same,area with substrate ENLYDQS,0.0451
same,area with substrate ENLYEQS,0.0577
same,area with substrate ENLYHQS,0.0498
same,area with substrate ENLYIQS,0.0479
same,area with substrate ENLYKQS,0.0552
same,area with substrate ENLYMQS,0.0575
same,area with substrate ENLYNQS,0.0485
same,area with substrate ENLYPQS,0.056
same,area with substrate ENLYRQS,0.046
same,area with substrate ENLYSQS,0.0692
same,area with substrate ENLYVQS,0.0706
same,area with substrate ENLYWQS,0.0758
L235T,area with substrate ENLYAQS,0.0917
same,area with substrate ENLYCQS,0.115
same,area with substrate ENLYDQS,0.0631
same,area with substrate ENLYEQS,0.0749
same,area with substrate ENLYGQS,0.0601
same,area with substrate ENLYHQS,0.068
same,area with substrate ENLYSQS,0.0856
same,area with substrate ENLYTQS,0.0904
same,area with substrate ENLYVQS,0.094
same,area with substrate ENLYWQS,0.079
L235C,area with substrate ENLYAQS,0.0692
same,area with substrate ENLYDQS,0.065
same,area with substrate ENLYGQS,0.0562
same,area with substrate ENLYMQS,0.0577
same,area with substrate ENLYNQS,0.0691
same,area with substrate ENLYSQS,0.0808
same,area with substrate ENLYVQS,0.12
L235P,area with substrate ENLYAQS,0.0615
same,area with substrate ENLYMQS,0.0756
same,area with substrate ENLYNQS,0.0499
same,area with substrate ENLYPQS,0.0685
same,area with substrate ENLYSQS,0.0757
same,area with substrate ENLYWQS,0.112
V113W,area with substrate ENLYCQS,0.0934
same,area with substrate ENLYDQS,0.0626
same,area with substrate ENLYHQS,0.0678
same,area with substrate ENLYIQS,0.124
same,area with substrate ENLYKQS,0.0661
same,area with substrate ENLYNQS,0.075
same,area with substrate ENLYPQS,0.0737
same,area with substrate ENLYQQS,0.0598
same,area with substrate ENLYWQS,0.0798
same,area with substrate ENLYYQS,0.0518
D69F,area with substrate ENLYCQS,0.0717
same,area with substrate ENLYDQS,0.0655
same,area with substrate ENLYMQS,0.0616
same,area with substrate ENLYNQS,0.0565
same,area with substrate ENLYPQS,0.0635
same,area with substrate ENLYQQS,0.0465
same,area with substrate ENLYYQS,0.0753
F101I,area with substrate ENLYCQS,0.0655
same,area with substrate ENLYDQS,0.0899
same,area with substrate ENLYIQS,0.0847
same,area with substrate ENLYNQS,0.0726
same,area with substrate ENLYPQS,0.0592
same,area with substrate ENLYSQS,0.0497
same,area with substrate ENLYWQS,0.0499
same,area with substrate ENLYYQS,0.0602
N172P,area with substrate ENLYCQS,0.0719
same,area with substrate ENLYEQS,0.0643
same,area with substrate ENLYNQS,0.0577
same,area with substrate ENLYRQS,0.0537
same,area with substrate ENLYSQS,0.0649
same,area with substrate ENLYWQS,0.054
same,area with substrate ENLYYQS,0.0922
V229D,area with substrate ENLYAQS,0.0716
same,area with substrate ENLYDQS,0.0725
same,area with substrate ENLYEQS,0.0696
same,area with substrate ENLYIQS,0.133
same,area with substrate ENLYNQS,0.0766
same,area with substrate ENLYPQS,0.0848
same,area with substrate ENLYQQS,0.067
same,area with substrate ENLYSQS,0.0047
same,area with substrate ENLYTQS,0.0908
same,area with substrate ENLYVQS,0.119
same,area with substrate ENLYWQS,0.0601
